Data taken from publication PMC8664900.
Results are given in words; binding and its absence hold for the method and conditions named. Some binding calls cover weakened binding; strength is not graded here. For some assays here: Sequences can lack the tags named with a protein. One block for each binder: values may come before it.

Assays:
[1] = target: T1, LexA-Vac8 (S. cerevisiae) (UniProt P39968); assay: two-hybrid; GAD and LexA fusions in the S. cerevisiae L40 reporter strain; X-gal colour reaction of lysed cells in 96-well plates
T1 sequence: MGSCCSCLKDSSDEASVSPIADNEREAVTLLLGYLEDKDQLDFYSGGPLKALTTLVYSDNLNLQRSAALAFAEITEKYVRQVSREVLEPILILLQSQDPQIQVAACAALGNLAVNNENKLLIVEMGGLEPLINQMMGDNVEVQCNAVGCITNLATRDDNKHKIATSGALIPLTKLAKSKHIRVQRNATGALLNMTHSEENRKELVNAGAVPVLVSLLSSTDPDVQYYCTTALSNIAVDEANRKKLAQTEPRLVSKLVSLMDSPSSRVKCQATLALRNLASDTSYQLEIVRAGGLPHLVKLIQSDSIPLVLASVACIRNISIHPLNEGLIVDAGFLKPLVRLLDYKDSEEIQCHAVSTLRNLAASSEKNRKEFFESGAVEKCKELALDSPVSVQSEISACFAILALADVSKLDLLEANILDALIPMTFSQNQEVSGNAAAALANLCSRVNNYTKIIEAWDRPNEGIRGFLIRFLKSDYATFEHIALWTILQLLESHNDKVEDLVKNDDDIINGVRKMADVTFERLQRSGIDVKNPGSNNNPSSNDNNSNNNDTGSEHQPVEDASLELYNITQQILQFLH

[2] = target: T2, Atg11-GFP-µNS (S. cerevisiae) (UniProt Q12527); assay: association with Atg11-GFP-µNS particles (fluorescence microscopy); Atg11-GFP-µNS particles in yeast cells; Supplementary Fig. 1c, d, details not shown
T2 sequence: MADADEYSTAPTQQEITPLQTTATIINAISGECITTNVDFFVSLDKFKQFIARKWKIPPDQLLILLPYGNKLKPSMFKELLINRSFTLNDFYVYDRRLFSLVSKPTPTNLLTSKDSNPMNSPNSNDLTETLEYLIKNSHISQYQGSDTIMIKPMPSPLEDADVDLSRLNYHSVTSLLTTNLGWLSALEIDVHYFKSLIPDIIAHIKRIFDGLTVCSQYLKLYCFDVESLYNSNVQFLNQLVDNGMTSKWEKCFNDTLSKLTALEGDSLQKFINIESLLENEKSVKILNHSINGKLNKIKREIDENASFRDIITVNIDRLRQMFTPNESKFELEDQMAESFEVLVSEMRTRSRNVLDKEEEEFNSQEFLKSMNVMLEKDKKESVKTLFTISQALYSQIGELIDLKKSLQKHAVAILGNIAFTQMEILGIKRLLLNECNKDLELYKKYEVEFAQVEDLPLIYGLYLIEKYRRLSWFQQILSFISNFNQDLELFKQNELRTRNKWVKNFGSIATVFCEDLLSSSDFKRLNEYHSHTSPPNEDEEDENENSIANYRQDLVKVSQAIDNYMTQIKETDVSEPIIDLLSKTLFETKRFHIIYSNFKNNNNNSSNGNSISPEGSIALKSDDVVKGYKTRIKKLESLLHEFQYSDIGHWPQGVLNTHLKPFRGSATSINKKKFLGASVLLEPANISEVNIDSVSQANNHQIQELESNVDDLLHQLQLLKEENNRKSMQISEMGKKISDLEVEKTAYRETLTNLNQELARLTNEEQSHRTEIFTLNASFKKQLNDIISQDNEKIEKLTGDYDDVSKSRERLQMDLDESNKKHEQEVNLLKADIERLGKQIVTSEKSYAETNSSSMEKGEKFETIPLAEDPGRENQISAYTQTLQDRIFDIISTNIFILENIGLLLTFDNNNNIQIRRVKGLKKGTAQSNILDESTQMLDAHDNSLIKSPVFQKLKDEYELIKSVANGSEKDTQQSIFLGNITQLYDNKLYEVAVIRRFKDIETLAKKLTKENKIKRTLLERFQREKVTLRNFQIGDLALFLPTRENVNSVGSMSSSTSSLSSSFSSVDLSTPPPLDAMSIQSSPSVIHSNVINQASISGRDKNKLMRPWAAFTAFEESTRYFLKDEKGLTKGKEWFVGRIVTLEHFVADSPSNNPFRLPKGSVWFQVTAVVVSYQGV

[3] = target: T3, Atg13-ot-BFP (S. cerevisiae) (UniProt Q06628); assay: recruitment of GFP-tagged prey to oligomer-tethered bait (live-cell fluorescence microscopy); bait fused to the ot peptide and clustered on cytosolic Ape1 oligomers in atg19∆ vac8∆ yeast; cells with GFP puncta counted; only the bait is clustered
T3 sequence: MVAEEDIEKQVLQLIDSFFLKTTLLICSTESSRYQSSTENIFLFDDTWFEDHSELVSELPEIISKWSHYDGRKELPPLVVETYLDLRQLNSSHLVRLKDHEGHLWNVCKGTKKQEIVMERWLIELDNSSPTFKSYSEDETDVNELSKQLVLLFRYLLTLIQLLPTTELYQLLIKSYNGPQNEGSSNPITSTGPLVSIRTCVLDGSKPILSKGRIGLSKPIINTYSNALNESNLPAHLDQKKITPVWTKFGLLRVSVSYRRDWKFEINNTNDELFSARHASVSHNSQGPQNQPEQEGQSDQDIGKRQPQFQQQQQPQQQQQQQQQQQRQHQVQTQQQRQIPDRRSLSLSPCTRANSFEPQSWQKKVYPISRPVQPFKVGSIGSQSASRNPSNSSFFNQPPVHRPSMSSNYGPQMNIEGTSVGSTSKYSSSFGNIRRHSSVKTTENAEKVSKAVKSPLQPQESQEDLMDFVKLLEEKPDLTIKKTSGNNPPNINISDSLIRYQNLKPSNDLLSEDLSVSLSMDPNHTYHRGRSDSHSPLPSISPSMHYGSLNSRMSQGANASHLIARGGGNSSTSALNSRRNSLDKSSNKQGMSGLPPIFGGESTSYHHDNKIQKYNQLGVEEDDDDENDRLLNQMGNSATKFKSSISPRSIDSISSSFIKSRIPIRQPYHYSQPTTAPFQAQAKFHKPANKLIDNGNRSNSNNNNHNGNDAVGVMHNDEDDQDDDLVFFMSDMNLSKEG

binding [1]: binds
B1: Atg11^FL-GAD (protein, UniProt Q12527 1-1178)
chain: T2 sequence

binding [1]: binds
B2: Atg11^1–454-GAD (domain or fragment, UniProt Q12527 1-454)
chain: MADADEYSTAPTQQEITPLQTTATIINAISGECITTNVDFFVSLDKFKQFIARKWKIPPDQLLILLPYGNKLKPSMFKELLINRSFTLNDFYVYDRRLFSLVSKPTPTNLLTSKDSNPMNSPNSNDLTETLEYLIKNSHISQYQGSDTIMIKPMPSPLEDADVDLSRLNYHSVTSLLTTNLGWLSALEIDVHYFKSLIPDIIAHIKRIFDGLTVCSQYLKLYCFDVESLYNSNVQFLNQLVDNGMTSKWEKCFNDTLSKLTALEGDSLQKFINIESLLENEKSVKILNHSINGKLNKIKREIDENASFRDIITVNIDRLRQMFTPNESKFELEDQMAESFEVLVSEMRTRSRNVLDKEEEEFNSQEFLKSMNVMLEKDKKESVKTLFTISQALYSQIGELIDLKKSLQKHAVAILGNIAFTQMEILGIKRLLLNECNKDLELYKKYEVEFAQVE

binding [2]: binds
B3: Atg19 (partner of Atg11-GFP-µNS particles) (protein, UniProt P35193 1-415)
chain: MNNSKTNQQMNTSMGYPLTVYDECNKFQLIVPTLDANIMLWCIGQLSLLNDSNGCKHLFWQPNDKSNVRILLNNYDYGHLFKYLQCQRKCSVYIGEGTLKKYNLTISTSFDNFLDLTPSEEKESLCREDAHEDPVSPKAGSEEEISPNSTSNVVVSRECLDNFMKQLLKLEESLNKLELEQKVTNKEPNHRISGTIDIPEDRSELVNFFTELKTVKQLEDVFQRYHDYERLSQECDSKTEIASDHSKKETKIEVEPPNERSLQITMNQRDNSLYFQLFNNTNSVLAGNCKLKFTDAGDKPTTQIIDMGPHEIGIKEYKEYRYFPYALDLEAGSTIEIENQYGEVIFLGKYGSSPMINLRPPSRLSAESLQASQEPFYSFQIDTLPELDDSSIISTSISLSYDGDDNEKALTWEEL

binding [3]: binds
B4: Vac8∆N-GFP (domain or fragment, UniProt P39968 19-578)
chain: PIADNEREAVTLLLGYLEDKDQLDFYSGGPLKALTTLVYSDNLNLQRSAALAFAEITEKYVRQVSREVLEPILILLQSQDPQIQVAACAALGNLAVNNENKLLIVEMGGLEPLINQMMGDNVEVQCNAVGCITNLATRDDNKHKIATSGALIPLTKLAKSKHIRVQRNATGALLNMTHSEENRKELVNAGAVPVLVSLLSSTDPDVQYYCTTALSNIAVDEANRKKLAQTEPRLVSKLVSLMDSPSSRVKCQATLALRNLASDTSYQLEIVRAGGLPHLVKLIQSDSIPLVLASVACIRNISIHPLNEGLIVDAGFLKPLVRLLDYKDSEEIQCHAVSTLRNLAASSEKNRKEFFESGAVEKCKELALDSPVSVQSEISACFAILALADVSKLDLLEANILDALIPMTFSQNQEVSGNAAAALANLCSRVNNYTKIIEAWDRPNEGIRGFLIRFLKSDYATFEHIALWTILQLLESHNDKVEDLVKNDDDIINGVRKMADVTFERLQRSGIDVKNPGSNNNPSSNDNNSNNNDTGSEHQPVEDASLELYNITQQILQFLH

binding [2]: binds
B5: Atg9 (partner of Atg11-GFP-µNS particles) (protein, UniProt Q12142 1-997)
chain: MERDEYQLPNSHGKNTFLSRIFGLQSDEVNPSLNSQEMSNFPLPDIERGSSLLHSTNDSREDVDENDLRVPESDQGTSTEEEDEVDEEQVQAYAPQISDGLDGDHQLNSVTSKENVLETEKSNLERLVEGSTDDSVPKVGQLSSEEEEDNEFINNDGFDDDTPLFQKSKIHEFSSKKSNTIEDGKRPLFFRHILQNNRPQRDTQKLFTSSNAIHHDKDKSANNGPRNINGNQKHGTKYFGSATQPRFTGSPLNNTNRFTKLFPLRKPNLLSNISVLNNTPEDRINTLSVKERALWKWANVENLDIFLQDVYNYYLGNGFYCIILEKILNICTLLFVVFVSTYMGHCVDYSKLPTSHRVSDIIIDKCYSNSITGFTKFFLWMFYFFVILKIVQLYFDVQKLSELQNFYKYLLNISDDELQTLPWQNVIQQLMYLKDQNAMTANVVEVKAKNRIDAHDVANRIMRRENYLIALYNSDILNLSLPIPLFRTNVLTKTLEWNINLCVMGFVFNESGFIKQSILKPSQREFTREELQKRFMLAGFLNIILAPFLVTYFVLLYFFRYFNEYKTSPGSIGARQYTPIAEWKFREYNELYHIFKKRISLSTTLANKYVDQFPKEKTNLFLKFVSFICGSFVAILAFLTVFDPENFLNFEITSDRSVIFYITILGAIWSVSRNTITQEYHVFDPEETLKELYEYTHYLPKEWEGRYHKEEIKLEFCKLYNLRIVILLRELTSLMITPFVLWFSLPSSAGRIVDFFRENSEYVDGLGYVCKYAMFNMKNIDGEDTHSMDEDSLTKKIAVNGSHTLNSKRRSKFTAEDHSDKDLANNKMLQSYVYFMDDYSNSENLTGKYQLPAKKGYPNNEGDSFLNNKYSWRKQFQPGQKPELFRIGKHALGPGHNISPAIYSTRNPGKNWDNNNNGDDIKNGTNNATAKNDDNNGNNDHEYVLTESFLDSGAFPNHDVIDHNKMLNSNYNGNGILNKGGVLGLVKEYYKKSDVGR
